The whole screen tested about 150,000 compounds, of which about 540 (0.36%) showed an effect of 50% or more. The list shows a part of the results.

The experiment deals with Plasmodium falciparum. In words: Primary screen in NF54 nanoGlo assay, in single point, at 2uM, 72h; a lower Z score goes with more inhibition. The experiment is classed as functional, Erythrocyte. Particulars: timepoint 72 hour.
As for `CCc1nc(CC)n(Cc2ccccn2)n1`, the % Inhibition (usually the change of the read-out against control, counted positive when it falls) is given as -11% and the Z score is given as 1.19.

Take `CCOc1ccccc1CN1C(=O)C2(OCCO2)c2ccccc21`: the “% Inhibition” value is -3% and the Z score stood at 0.63.

On to `Cc1ccc(-c2nc(CCNS(=O)(=O)c3ccc(C4CCCCC4)cc3)n[nH]2)cc1`, for which the “% Inhibition” value is recorded as -6% and the Z score was 1.04.

On to `CN1C(=O)[C@H](O)N(c2cccc3ccccc23)C1=O`, for which the “% Inhibition” value turned out to be 32% and the Z score was -0.44.

Turning to `COc1ccc(C2CN(C(=O)c3ccccc3)CC2C(=O)NC2CC2)c(OC)c1` (stereo not drawn), the “% Inhibition” value was 3% and the Z score was -0.46.

For the compound `CCCc1csc(CCN2CCOC2=O)n1`, the “% Inhibition” value is given as -15% and the Z score amounted to 2.36.

As for `Cc1cc(C)c(C)c(S(=O)(=O)N2CCC[C@H]2c2nc(-c3cccc(Cl)c3)no2)c1C`, the “% Inhibition” value is given as -1% and the Z score was 0.15.

Consider `C=CCOc1ccccc1CN(CC(=O)N1CCNC1=O)c1ccc(C)c(C)c1`, for which the “% Inhibition” value is on record as -3% and the Z score is on record as 0.34.

Take `Cc1noc(C)c1CNc1ccc(S(=O)(=O)N2CCCC2)cc1`: the “% Inhibition” value is on record as -2% and the Z score worked out at 0.28.

`COC1(CNC2CC(c3ccc(F)cc3)C2)CCOCC1` (stereo not drawn): the “% Inhibition” value was -15% and the Z score was determined as 2.86.

With `COC(=O)c1cn(-c2cccc(C)n2)cn1`, the “% Inhibition” value is 3% and the Z score is recorded as -0.42.

Regarding `Cc1cc(CNC(=O)NCCCOc2cccc(C)c2C)n(C)n1`, the “% Inhibition” value is listed as -7% and the Z score stood at 0.88.

In the case of `CC(C)(C)OC(=O)N1CCC(CC(=O)NCc2cncc(C3CC3)c2)CC1`, the “% Inhibition” value was -7% and the Z score is 0.78.

Regarding `Cc1ccc(C)n1CC(=O)N1CCc2[nH]c3ccc(F)cc3c2C1`, the “% Inhibition” value was -16% and the Z score was 1.97.

`Cc1ncccc1C(=O)N1CCC[C@H]1c1nc(CCOCC2CC2)no1`: the “% Inhibition” value is on record as -4% and the Z score came out at 0.54.

Take `CCc1c(C)noc1NC(=O)c1cncn1C`: the “% Inhibition” value is -3% and the Z score came out at 0.38.

`CCCN(CCC)C(=O)Cn1nc2c(N3CCN(c4ccccc4C)CC3)nccn2c1=O`: the “% Inhibition” value was -26% and the Z score came to 2.47.

For the compound `Fc1ccc(-c2csc(-c3nc(-c4ccc(Cl)cc4)cs3)n2)cc1`, the “% Inhibition” value was -2% and the Z score turned out to be 0.19.

Take `CC#CCOc1ccc(Cl)cc1C(N)=O`: the “% Inhibition” value is listed as -9% and the Z score is reported as 1.54.

As to `Cc1nc2ccccn2c1CN(C)C(=O)c1cc(C(C)C)no1`, the “% Inhibition” value is listed as -11% and the Z score is listed as 2.03.

With `COc1ccccc1CNc1nc(-c2ccco2)n[nH]1`, the “% Inhibition” value is given as -12% and the Z score came out at 1.08.

On to `CC(C)(C)c1cc(Oc2ccc(-n3cncn3)cc2)ncn1`, for which the “% Inhibition” value is 5% and the Z score is recorded as -0.62.

With `COc1ccc(OC)c(CNC(=O)C2CCN(c3ccc(-c4cccc(C)c4)nn3)CC2)c1`, the “% Inhibition” value was 3% and the Z score is on record as -0.43.

As for `O=S(=O)(CCc1ccc2c(c1)CCO2)N1CCOc2cc(F)ccc21`, the “% Inhibition” value is reported as -15% and the Z score stood at 2.44.

For the origin of these results see ChEMBL document CHEMBL4888484, “Replenishing the malaria drug discovery pipeline: Screening and hit evaluation of the MMV Hit Generation Library 1 (HGL1) against asexual blood stage Plasmodium falciparum ,using a nano luciferase reporter read-out” (2022).
